Laboratory results taken from PubChem BioAssay (NCATS).
Inconclusive means that the source gave no clear call. Such entries were picked first, then a sample of the others. No potency is given beside an inconclusive call; the fits are too rough. Active and inactive are the calls of the source. Calls come from the whole dose curve; as a rule, active = well fitted inhibition curve with a large enough effect; inconclusive = small, poorly fitted or top-dose-only effect; inactive = no such curve, though single readings can be large or run the other way.

target: Muscarinic acetylcholine receptor M1 (Rattus norvegicus) (UniProt P08482); assay: qHTS Assay for Antagonists of Acetylcholine Muscarinic M1 Receptor: Kinetic Measurement of Intracellular Calcium Response (AID 943); settings: M1-expressing cells, kinetic intracellular calcium fluorescence; series mostly up to 35.3 µM; note: nearly all actives have a fitted effect of over 75% in size
Sequence of UniProt P08482 (P08482 whole entry, looked up): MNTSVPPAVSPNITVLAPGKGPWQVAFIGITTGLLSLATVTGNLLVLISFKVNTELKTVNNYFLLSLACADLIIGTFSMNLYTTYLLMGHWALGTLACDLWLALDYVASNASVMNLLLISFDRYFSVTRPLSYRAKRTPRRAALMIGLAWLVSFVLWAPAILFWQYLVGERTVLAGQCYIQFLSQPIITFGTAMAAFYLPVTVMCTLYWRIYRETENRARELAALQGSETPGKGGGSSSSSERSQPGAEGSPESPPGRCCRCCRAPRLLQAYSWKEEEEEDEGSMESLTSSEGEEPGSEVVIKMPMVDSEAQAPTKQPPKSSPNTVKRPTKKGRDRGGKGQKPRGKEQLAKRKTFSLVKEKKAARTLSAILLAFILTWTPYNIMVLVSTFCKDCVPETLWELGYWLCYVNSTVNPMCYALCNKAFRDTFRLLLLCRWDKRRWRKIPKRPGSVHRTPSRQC
Procedure, shortened: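 Quantitative HTS in CHO-M1 (rat receptor) cells: 10 min compound exposure ahead of 100 nM carbachol, Fluo-4 fluorescence followed 4 min, value expressed as peak-to-basal ratio.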
Potency is the fitted concentration of half-maximal effect; tags give direction and shape of the fitted curve.

Row | SMILES | Potency
1 | COc1ccc2c(c1)CCC1C2CC[C@]2(C)[C@H](NCCCCCCN3C(=O)C=CC3=O)CC[C@@H]12 (some centres undefined) | inconclusive [inhibitor, partial curve, poor fit]
2 | CC(=O)O[C@@H]1[C@H]([N+]2(C)CCCCC2)C[C@@H]2[C@@H]3CC[C@@H]4C[C@@H](OC(C)=O)[C@H]([N+]5(C)CCCCC5)C[C@@]4(C)[C@H]3CC[C@]21C | active: 8.91 µM
3 | CC(C)[C@@H]1NC(=O)[C@H](CCCCN)NC(=O)[C@H](Cc2c[nH]c3ccccc23)NC(=O)[C@H](Cc2ccc(O)cc2)NC(=O)[C@H](C)N(C)C(=O)[C@H](Cc2ccccc2)NC1=O | inconclusive [inhibitor, partial curve, poor fit]
4 | O=C(NC[C@H]1CCCCN1)c1cc(OCC(F)(F)F)ccc1OCC(F)(F)F | inconclusive [inhibitor, full curve, poor fit]
